Laboratory results reported in PubChem BioAssay AID1768 (National Center for Advancing Translational Sciences (NCATS), 2009).
In all, about 270,000 compounds went through this assay and about 620 (0.23%) were called active. Inconclusive results, whose numbers are uncertain, are shown with a selection of clear calls. Calls come from the whole dose curve; as a rule, active = well fitted inhibition curve with a large enough effect in the polarisation, with a control signal flat (not every such curve was filed as active); inconclusive = small, poorly fitted or top-dose-only effect, or effect the other way, or a change in a side signal; inactive = no such curve, though single readings can be large or run the other way; the % refers to the polarisation. Potencies of inconclusive entries are doubtful fits and often do not repeat. “Side channel” marks fits to a control or component signal instead of the main read-out.

biological target: Menin (Homo sapiens) (UniProt O00255); assay: qHTS Assay for Inhibitors Targeting the Menin-MLL Interaction in MLL Related Leukemias: Competition With Texas Red Labeled MLL-derived Mutant Peptide; conditions: fluorescence polarization; series mostly up to 61.6 µM
Chain of UniProt O00255 (O00255 whole entry, looked up): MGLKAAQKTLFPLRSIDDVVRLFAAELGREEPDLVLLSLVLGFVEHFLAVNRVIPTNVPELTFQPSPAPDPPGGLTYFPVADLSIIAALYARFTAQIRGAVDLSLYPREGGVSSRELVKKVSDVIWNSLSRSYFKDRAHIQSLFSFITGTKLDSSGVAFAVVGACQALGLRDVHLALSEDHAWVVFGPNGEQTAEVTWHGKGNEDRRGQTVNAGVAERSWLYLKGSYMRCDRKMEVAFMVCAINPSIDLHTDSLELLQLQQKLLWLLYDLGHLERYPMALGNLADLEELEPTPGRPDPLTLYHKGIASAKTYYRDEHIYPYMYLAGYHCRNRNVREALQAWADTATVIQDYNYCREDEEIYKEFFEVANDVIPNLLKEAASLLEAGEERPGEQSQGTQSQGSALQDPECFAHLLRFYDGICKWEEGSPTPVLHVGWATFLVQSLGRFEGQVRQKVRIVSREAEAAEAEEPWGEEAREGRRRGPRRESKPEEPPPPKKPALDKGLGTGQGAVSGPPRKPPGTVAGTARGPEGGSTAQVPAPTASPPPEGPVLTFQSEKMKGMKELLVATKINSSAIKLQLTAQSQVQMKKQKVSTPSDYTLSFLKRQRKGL
Potency is the fitted concentration of half-maximal effect; tags give direction and shape of the fitted curve or compound fluorescence and quenching.

Row | SMILES | Potency
1 | c1ccc(Nc2nnc(-c3cccnc3)s2)cc1 | inconclusive: 39.8 µM [inhibitor, single point]
2 | O=C(c1cnn2c(C(F)(F)F)cc(-c3ccccc3)nc12)N1CCCc2ccccc21 | inconclusive: 3.98 µM [fluorescent, side channel, single point]
3 | Cc1ccccc1-c1cncnc1N1CCNCC1 | inconclusive: 39.8 µM [inhibitor, single point]
4 | O=S(=O)(O)c1ccc2c(c1)-c1nc-2nc2[nH]c(nc3nc(nc4[nH]c(n1)c1ccc(S(=O)(=O)O)cc41)-c1ccc(S(=O)(=O)O)cc1-3)c1ccc(S(=O)(=O)O)cc21 | inconclusive: 2.24 µM [quencher, side channel, full curve]
5 | Cc1[nH]c2ccccc2c1C(C[N+](=O)[O-])c1ccco1 (stereo unspecified) | inconclusive: 35.5 µM [quencher, side channel, single point]
6 | CCN(CC)S(=O)(=O)c1ccc(N/N=C/c2cc(OC)ccc2O)nc1 | inconclusive: 4.47 µM [quencher, side channel, full curve]
7 | S=c1[nH]nc(-c2ccc3ncccc3c2)n1-c1ccc2c(c1)OCCO2 | inactive
8 | Cc1ccc(NC(=S)Nc2cccc3cnccc23)cc1C | inconclusive: 35.5 µM [quencher, side channel, single point]
9 | NCCCCCc1nnc(SCc2ccc(Cl)c(Cl)c2)o1 | inconclusive: 11.2 µM [inhibitor, single point]
10 | CCCc1c(OCCCOc2ccc(OCC(=O)O)cc2)ccc(CC=O)c1O | inconclusive: 14.1 µM [quencher, side channel, single point]
11 | Cc1[nH]n(-c2ncc(-c3ccccc3)s2)c(=O)c1C(c1ccc(Cl)cc1)C(C#N)C#N (stereo unspecified) | inconclusive: 28.2 µM [quencher, side channel, partial curve]
12 | COc1cccc(NC(=O)c2oc3ccccc3c2NC(=O)c2ccc3c(c2)OCO3)c1 | inconclusive: 3.98 µM [quencher, side channel, full curve]
13 | COc1cc(/C=C2/SC(=S)N(C)C2=O)ccc1OC(=O)c1ccco1 | inconclusive: 14.1 µM [fluorescent, side channel, partial curve]
14 | CC(C)C[C@H](NC(=O)c1nc[nH]c1C(=O)NCCCCCNC(=O)OC(C)(C)C)C(=O)OC(C)(C)C | inconclusive: 3.98 µM [fluorescent, side channel, full curve]
15 | CCOCCCNC(=O)C1c2ccccc2Oc2ccccc21 | inconclusive: 3.55 µM [quencher, side channel, single point]
16 | CCSc1nnc2ccc(-c3ccc(C)cc3)nn12 | inconclusive: 44.7 µM [inhibitor, partial curve]
17 | NS(=O)(=O)c1ccc(N/N=C2/CCCc3ccccc32)c([N+](=O)[O-])c1 | inconclusive: 31.6 µM [quencher, side channel, partial curve]
18 | Cc1[nH]c2ccccc2c1/C=N/Nc1ccc(F)cc1F | inconclusive: 15.8 µM [quencher, side channel, partial curve]

Row | SMILES | Potency
19 | O=C(NCc1ccco1)c1cc(NS(=O)(=O)c2cccc([N+](=O)[O-])c2)ccc1O | inconclusive: 35.5 µM [quencher, side channel, single point]
20 | C=CCN1C(=O)/C(=C/c2ccc(O)c(OC)c2)S/C1=N/c1nccs1 | inconclusive: 25.1 µM [fluorescent, side channel, partial curve]
21 | O=C(Nc1cc(=O)c2ccccc2o1)N1CCOCC1 | inconclusive: 39.8 µM [fluorescent, side channel, single point]
22 | N#Cc1c(Sc2ncc(C(F)(F)F)cc2Cl)nsc1C/C=N\OCc1ccccc1Br | inconclusive: 11.2 µM [quencher, side channel, partial curve]
23 | C=CC1=C(C)/C(=C/c2[nH]c(Cc3[nH]c(/C=C4\NC(=O)C(C)=C4C=C)c(C)c3CCC(=O)O)c(CCC(=O)O)c2C)NC1=O | inconclusive: 39.8 µM [fluorescent, side channel, single point]
24 | COc1nc(Cl)cn(-c2ccc(C)cc2)c1=O | inactive
25 | O=C(Cn1c(NCCO)nc2ccccc21)NCCc1ccccc1 | inconclusive: 7.08 µM [inhibitor, single point]
26 | CC(C)CCC(CCNCc1ccccn1)c1ccc(Cl)cc1 (stereo unspecified) | inconclusive: 31.6 µM [inhibitor, partial curve]
27 | CCOCCCNc1nc2c(C)cccn2c(=O)c1/C=C1\SC(=S)N(CC(C)C)C1=O | inconclusive: 1.26 µM [inhibitor, partial curve, poor fit]
28 | Cc1cc(C)c(S(=O)(=O)c2ccc(Cl)cc2)c(Cl)n1 | inactive
29 | COc1cccc(CC2(CO)CCCN(Cc3cc(F)ccc3-n3cccn3)C2)c1 (stereo unspecified) | inactive
30 | Cc1cc(C)nc(NN2C(=O)/C(=C/c3ccccc3)SC2=S)n1 | inconclusive: 39.8 µM [inhibitor, single point]
31 | COc1ccccc1[C@H]1C(c2ccc(F)cc2)=NN(c2ccccc2)[C@@H]1CO | inconclusive: 15.8 µM [quencher, side channel, partial curve]
32 | Cc1ccc(-n2nc3cc(C)c(NC(=S)NC(=O)/C=C/c4ccco4)cc3n2)cc1 | inconclusive: 12.6 µM [quencher, side channel, partial curve]
33 | COc1ccc(C(=O)NC(NC(=O)c2ccc(OC)cc2)c2ccccc2F)cc1 | inconclusive: 25.1 µM [fluorescent, side channel, single point]
34 | N#C/C(=C\c1ccc[nH]1)Sc1nc2ccccc2s1 | inconclusive: 20 µM [quencher, side channel, single point]
35 | CN(C)S(=O)(=O)c1ccc(C(=O)Nc2nc(-c3cccs3)cs2)cc1 | inconclusive: 10 µM [quencher, side channel, partial curve]
36 | CCCC(=O)Nc1ccc2oc(=O)ccc2c1 | inactive
